Measurements as given in PubChem BioAssay AID504466 (National Center for Advancing Translational Sciences (NCATS), 2011).
Out of some 330,000 compounds screened, about 4,200 (1.3%) were called active. This list was built around the results that the source calls inconclusive (neither active nor inactive); the mix of calls is not that of the screen. Calls come from the whole dose curve; as a rule, active = well fitted activation curve with a large enough effect; inconclusive = small, poorly fitted or top-dose-only effect; inactive = no such curve, though single readings can be large or run the other way. A potency beside an inconclusive call is a rough fit, not a confirmed value.

Test: qHTS screen for small molecules that induce genotoxicity in human embryonic kidney (HEK293T) cells expressing luciferase-tagged ELG1; note: nearly all actives have a fitted effect of over 60% in size
Conditions: HEK293T ELG1-luciferase reporter, luminescence, 16 h; series mostly up to 46 µM
Summary of the method: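 Screening used a luciferase reporter fused to human ELG1 in HEK293T cells. Luminescence was read on a CCD plate imager after 16 hr exposure and 30 min ONE-Glo incubation.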
Potency is the fitted concentration of half-maximal effect; tags give direction and shape of the fitted curve.

Row | Structure (SMILES) | Potency
1 | CC(NS(=O)(=O)c1ccc(Br)cc1)C(N)=O (stereo unspecified) | inactive
2 | CC(C)CCNC(=O)C(c1ccco1)N(C(=O)Cn1nnc2ccccc21)c1ccc2c(c1)OCO2 (stereo unspecified) | inactive
3 | CC(=O)Nc1ccc(NC(=O)C(C)OC(=O)CCc2c[nH]c3ccccc23)cc1 (stereo unspecified) | inconclusive: 0.13 µM [activator, full curve, poor fit]
4 | Cc1ccc(NC(=S)NC(=O)C2CC2)c(C)c1 | active: 20.6 µM
5 | COc1ccc(CNC(=O)[C@H](C)NC(=O)C2CCN(S(=O)(=O)c3ccc(F)cc3)CC2)cc1 | inactive
6 | O=C(/C=C/c1ccccc1)Nc1ccc2c(c1)OCCO2 | inconclusive: 0.651 µM [activator, partial curve, poor fit]
7 | O=C(NC1CCN(Cc2ccccc2)CC1)c1cccc(S(=O)(=O)Nc2ccc(F)cc2)c1 | inactive
8 | CCOc1cccc(C(=O)NC2CCCCC2)c1 | inconclusive: 20.6 µM [activator, partial curve, poor fit]
9 | COc1ccc(Cc2nnc(SCC(=O)c3ccc(OC)cc3)o2)cc1 | inconclusive: 25.9 µM [activator, partial curve, poor fit]
10 | CCOc1cccc(/C=C/c2ccc3ccccc3n2)c1OC(C)=O | active: 0.366 µM
11 | CC(NC(=O)c1ccccc1)C(=O)OCC(=O)c1c(N)n(C)c(=O)n(C)c1=O (stereo unspecified) | inactive
12 | C/C(=N\Nc1ccc(C(=O)O)cc1)c1ccc(-n2ccnc2)cc1 | inconclusive: 11.6 µM [activator, partial curve, poor fit]
13 | Cc1ccc(NC(=O)CCCC2CCCCC2)c(O)c1 | inconclusive: 18.3 µM [activator, partial curve]
14 | COc1ccc(C(=O)NCCS(=O)(=O)NCCc2ccccc2)cc1 | inconclusive: 20.6 µM [activator, partial curve, poor fit]
15 | CC(=O)Nc1ccc2oc(-c3ccccc3)nc2c1 | inconclusive: 2.59 µM [activator, single point]
16 | CN(C)C(=O)[C@@H]1C[C@H]1[C@@H](NC(=O)OCc1ccccc1)c1ccccc1 | inconclusive: 23.1 µM [activator, partial curve, poor fit]
17 | Cn1c(=O)n(C)c2cc(NC(=O)CSc3ccccc3)ccc21 | inconclusive: 29.1 µM [activator, single point]
18 | Nn1c(Nc2ccccc2)nc2sc3c(c2c1=O)CCCC3 | inactive
19 | Cc1cc(N2C(=O)C=CC2=O)c([N+](=O)[O-])cc1C | inactive
20 | Cc1ccc(OC(C)C(=O)Nc2cc(C)on2)cc1 (stereo unspecified) | inactive
21 | COc1ccc(NC(C)=O)cc1NC(C)c1nc2sc(C)c(C)c2c(=O)[nH]1 (stereo unspecified) | inactive
22 | CCCN(CCC)S(=O)(=O)c1ccc(Cl)c(OC)c1 | inactive
23 | CCCCN=CC1=C(O)C(C(=O)OC)C(C)(C)CC1=O (stereo unspecified) | inactive
24 | CC(=O)Nc1ccc(/C=N/OCC(=O)Nc2ccc(C)cc2)cc1 | inconclusive: 23.1 µM [activator, single point]
25 | Cc1occc1C(=O)N/N=C/C=C/c1ccc(N(C)C)cc1 | inconclusive: 14.6 µM [activator, partial curve]
26 | COc1cc(C(=O)Nc2ccccn2)cc(OC)c1OC | inactive

Row | Structure (SMILES) | Potency
27 | Fc1cccc(Cl)c1/C=C/c1cnc2ccccc2n1 | active: 0.517 µM
28 | COc1cccc(/C=N/NC(=O)C(=O)N2CCCC2)c1O | inconclusive: 23.1 µM [activator, partial curve, poor fit]
29 | C/C(CC(=O)N1CCCC1)=N\NC(=O)c1cc2ccccc2cc1O | inactive
30 | COc1cccc(C(=O)Nc2ccc(NC(C)=O)cc2)c1 | inconclusive: 23.1 µM [activator, single point]
31 | CC(=O)Nc1ccc(NC(=O)CSc2ncc(C(=O)Nc3ccc(F)cc3)c(=O)n2C)cc1 | inactive
32 | COC(=O)c1nn(-c2ccccc2)nc1-c1nn(-c2ccccc2)nc1C(=O)OC | inconclusive: 20.6 µM [activator, single point]
33 | Cc1ccsc1/C=N/NC(=O)c1sccc1C | inconclusive: 8.2 µM [activator, partial curve]
34 | O=C1O/C(=C/c2ccccc2)N=C1c1ccccc1 | inactive
35 | Cc1ccc(NC(=O)C2CCN(C(=O)c3ccc(F)cc3)CC2)nc1 | inactive
36 | O=C(CSc1n[nH]c(Cc2ccccc2)n1)Nc1ccccc1Br | inactive
37 | CN(Cc1ccccc1)C(=O)c1ccc(NC(=O)Cc2ccc([N+](=O)[O-])cc2)cc1 | inactive
38 | COc1ccc2oc(C(=O)Nc3ccc(C)cn3)c(C)c2c1 | active: 5.8 µM
39 | O=C1c2ccccc2NC(c2ccc(-c3ccc(F)cc3)o2)N1O (stereo unspecified) | inconclusive: 11.6 µM [activator, partial curve, poor fit]
40 | CC(C)CNC(=O)C(=O)Nc1cc2c3c(c1)C(C)C(=O)N3CCC2 (stereo unspecified) | inconclusive: 23.1 µM [activator, partial curve, poor fit]
41 | COC(=O)c1cccc(NC(=O)CSc2ncn[nH]2)c1 | inconclusive: 25.9 µM [activator, partial curve, poor fit]
42 | O=C(C1CC(c2ccccc2O)=NO1)N1CCCCC1 (stereo unspecified) | active: 13 µM
43 | CCc1ccc(NC(=O)C2C3/C=C\CCCCC32)cc1 (stereo unspecified) | inconclusive: 18.4 µM [activator, partial curve, poor fit]
44 | CCOC(=O)Cn1cc(C#N)c2ccccc21 | inactive
45 | COc1cccc(C(=O)NCc2ccc(-c3nc4ccccc4s3)cc2)c1 | active: 20.6 µM
46 | N#Cc1c(C(F)(F)F)cc(-c2ccc(F)cc2)[nH]c1=O | inactive
47 | COc1ccc(NC(=O)c2ccccc2NS(C)(=O)=O)cc1OC | inactive
48 | CCC(CC)c1nnc(NC(=O)C2COc3ccccc3O2)s1 (stereo unspecified) | inconclusive: 4.11 µM [activator, partial curve]
49 | Cc1ccc(-n2c(C)cc(C(=O)CN3CCCCC3)c2C)cc1 | inactive
50 | CCCCc1cc(=O)oc2cc(OCc3cc(OC)c(OC)c(OC)c3)c(Cl)cc12 | inconclusive: 18.4 µM [activator, partial curve, poor fit]
51 | Cc1ccc(O)c(N=NC2=C(O)CC(C)(C)CC2=O)c1 | inconclusive: 23.1 µM [activator, single point]
